Measurements taken from US20040023883A1 (published 2004).

Target: T1, human IGFBP-1 (human, UniProt P08833 26-259)
T1 construct: Recombinant secreted protein
T1 sequence (looked up): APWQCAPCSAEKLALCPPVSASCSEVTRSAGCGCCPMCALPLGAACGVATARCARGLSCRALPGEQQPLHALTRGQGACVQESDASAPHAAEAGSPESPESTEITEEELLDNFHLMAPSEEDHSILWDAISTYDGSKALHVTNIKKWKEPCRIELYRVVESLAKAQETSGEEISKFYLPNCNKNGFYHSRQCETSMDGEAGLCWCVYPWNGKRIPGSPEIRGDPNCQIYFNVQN
Assay: competitive phage ELISA
Experimental: E. coli cells (XL1-Blue, Stratagene) freshly transformed with phagemid vector were grown overnight in 5 mL 2YT medium (Sambrook et al, supra) in the presence of M13-VCS helper phage (Stratagene). Phage particles were harvested and resuspended in PBS buffer as described in Lowman, H. B., “Phage Display of Peptide Libraries on Protein Scaffolds,” in Cabilly, S. (ed.), Combinatorial Peptide Library Protocols (Humana Press Inc.: Totowa, N.J., 1998), pp. 249-264. Then phage concentrations were normalized to yield a maximal ELISA signal of 0.2-0.4 for each mutant (Lowman, in Cabilly, S. (ed.), supra). […] After blocking, the plates containing immobilized target were washed with 0.05% TWEEN™/PBS buffer and subsequently incubated with 80 μl/well of the premixed phage-competitor solutions for 1 hour at room temperature. After washing, bound phage was detected with 80 μl/well of a solution containing a primary rabbit anti-phage polyclonal antibody and a secondary goat anti-rabbit monoclonal antibody-horseradish peroxidase conjugate in 0.5% TWEEN 20™/PBS. o-Phenylenediamine (Sigma) and tetramethylbenzidine (Kirkegaard and Perry) were used as chromogenic substrates, resulting in product detection at 492 and 450 nm, respectively. IC₅₀ values were determined by fitting the binding data to a generic saturation curve (Lowman, in Cabilly, S. (ed.), supra).

B1: IGF-I S1A on phage (G1S-A70V template) (ligand, not shown: large carriers)
chain: not shown
binding result: binds
